The values that follow come from ChEMBL document CHEMBL1201862, “PubChem BioAssay data set” (2004).

Each structure is given as a SMILES string. Several values for one entry are separate records, joined by “and”; a condition that tells them apart may be missing. Equal entries are not always repeated.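 48-hour exposure; five concentrations; linearly interpolated endpoints. GI50: concentration for 50% inhibition of growth.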 Activity calls are given as the source filed them. Rule as the data show it: active = GI50 up to about 1.1 µM and inactive = higher.

In the test the test system is NCI-H322M. Kind of test: DTP human tumour cell line panel, 48 h.
As a reminder, the GI50 is the concentration that inhibits growth by half. In the case of `O=C(O)c1cc(-c2ccc3cc(O)c(O)cc3c2)ccc1O`, the GI50 was inactive: > 12.5 µM.
Next, `COc1cc(C2C(Cl)C(=O)N2NC(=O)c2ccccc2O)cc(OC)c1OC` (stereo not given): inactive: 3.48 µM; `CC(=O)OC1COC(N2CCc3cc([N+](=O)[O-])ccc32)C(OC(C)=O)C1OC(C)=O` (stereo not given): inactive: > 100 µM; `Cn1cnc([N+](=O)[O-])c1SCC(=O)O`: inactive: > 100 µM.
Regarding `N=C(N)SCc1ccc(Cl)c2ccccc12.O=[N+]([O-])c1c(O)c(Cl)cc(Cl)c1Cl`, the GI50 was inactive: 12.9 µM.
Regarding `CC(=O)/C=C/c1c[nH]c(=O)[nH]c1=O`, the GI50 is inactive: 101 µM.
On to `C/C=C1/CN2CC[C@@H]3c4ccccc4N4[C@H](C(=O)OC)[C@H]1C[C@H]2[C@]34/C=C/C1=COC[C@@H]2[C@H]1C[C@H]1c3c(c4ccccc4n3C)C[C@@H]2N1C`, for which the GI50 is inactive: 4.02 µM.
Turning to `Cc1ccc(C(CCO)CCO)nc1`, the GI50 is inactive: > 100 µM.
Next, `CC1=C(C(=O)N[C@@H](Cc2ccccc2)C(=O)O)N2C(=O)[C@@H](NC(=O)[C@@H](N)CC(C)C)[C@H]2SC1`: inactive: > 100 µM; `Cc1csc(NCc2ccc(Cl)cc2)n1`: inactive: > 100 µM; `C[N+](C)(C)c1ncnc2c1ncn2C1CC(O)C(CO)O1` (stereo not given): inactive: > 100 µM.
As for `NC(=O)NOCC1NC(=O)NC1=O` (stereo not given), the GI50 is inactive: > 100 µM.
Next, `Cn1c(=O)c2[nH]c(N=O)nc2n(C)c1=O`: inactive: > 100 µM.
Next, `COC(=O)[C@@H]1C[C@@H]2c3ccccc3N(S(=O)(=O)c3ccccc3)[C@@H]2N1C(=O)OC`: inactive: > 100 µM; `Cc1cc(S(=O)(=O)Nc2nnc3c4ccccc4cnn23)c(S)cc1Cl`: inactive: 30.9 µM.
On to `CC(C)C1(O)C(=O)N(c2c(F)c(F)c(F)c(F)c2F)C(=S)N1CCSc1ccccc1` (stereo not given), for which the GI50 is inactive: 17.9 µM.
Turning to `CCNC(=O)c1cc(/C=C/c2ccc([N+](=O)[O-])o2)nc2ccccc12`, the GI50 was inactive: 66.1 µM.
Then `COc1ccc2[nH]c3c(c2c1)[C@H]1CCC(C(C)(C)C)C[C@H]1[C@H]1C(=O)N(c2ccccc2)C(=O)[C@@H]31` (stereo not given in full), with inactive: 45.5 µM.
Take `COCn1c(C)c(C)c2c(=O)oc(=O)[nH]c21`: the GI50 is inactive: > 100 µM.
Then `CNC(=S)N/N=C1\CC(c2ccccc2)Oc2ccccc21` (stereo not given), with inactive: > 100 µM; and `COc1ccc(C2NCCc3c2[nH]c2ccccc32)cc1` (stereo not given), with inactive: > 100 µM.
Next, `COc1ccc(C2SCC(=O)N2NC2=NC(=O)CC(=O)N2)cc1` (stereo not given): inactive: > 100 µM; `O=C1c2ccccc2S(=O)(=O)c2c1cccc2[N+](=O)[O-]`: inactive: 2.51 µM.
Next, `O=C1C=C(Cl)C(=O)C(c2ccc(Cl)cc2)=C1`: inactive: 42.2 µM; `Nc1c(/N=N/c2ccc(-c3ccc(/N=N/c4c(O)ccc5cc(S(=O)(=O)O)cc(S(=O)(=O)O)c45)cc3)cc2)c(S(=O)(=O)O)cc2cc(S(=O)(=O)O)c(/N=N/c3ccccc3)c(O)c12`: inactive: > 88.5 µM.
As for `COc1ccc(OC)c(/C=C(/C#N)c2ccccc2)c1`, the GI50 was inactive: 36.1 µM.
For `COC(=O)c1c(C#C[Si](C)(C)C)c(C#C[Si](C)(C)C)c(C#C[Si](C)(C)C)c(C#C[Si](C)(C)C)c1C(=O)OC`, the GI50 is inactive: > 100 µM.
For `C=C1CC2(OC1=O)c1ccccc1C=Cc1ccccc12`, the GI50 is inactive: 15.7 µM.
Next, `CCOC(=O)c1c(N)nn2c1cc1cccccc12`: inactive: 34.1 µM; `Oc1cc(Cl)cc2cccnc12`: inactive: 20.2 µM.
Next, `CN(/N=C(\C(=O)O)c1ccccc1)C1=NCCCN1`: inactive: > 100 µM; `Nc1c(S(=O)(=O)c2ccccc2)c2nc3ccccc3nc2n2c1nc1ccccc12`: inactive: > 53.6 µM.
Next, `CCCCN1C(=O)C2c3[nH]c4ccccc4c3C3CCCCC3C2C1=O.CCCCN1C(=O)C2c3[nH]c4ccccc4c3[C@@H]3CCCCC3C2C1=O` (stereo not given): inactive: 15.6 µM; `COc1ccc(/N=N/c2c(-c3c(OC)cc4occc4c3OC)[nH]c(=O)c(C#N)c2C)cc1`: inactive: > 100 µM; `O=C(Nc1cc(Cl)ccc1Cl)c1cc2cccc(Cl)c2oc1=O`: inactive: > 100 µM.
For `Cc1cccc(C)c1NC(=O)CCC(=O)NC(N)=S`, the GI50 was inactive: > 100 µM.
Then `N#Cc1nc(CCC(c2nc(C#N)c(N)o2)N2C(=O)c3ccccc3C2=O)oc1N` (stereo not given), with inactive: > 100 µM; and `COc1ccc(-c2c3c([nH]c(=S)c2C#N)CC(C)(C)CC3=O)cc1`, with inactive: > 100 µM.
Then `C1CCCCC2(CCCCCCCCC3(CCC1)SCCS3)SCCS2`, with inactive: > 100 µM.
Turning to `O=C1CC2(CCC3=C(O2)c2ccccc2NC(=O)C3)C(=O)c2ccccc2N1` (stereo not given), the GI50 is inactive: > 10 µM.
As to `C[C@H](C1CC(C)(O)C(C)(O)C(O)O1)[C@H]1CC[C@H]2[C@@H]3[C@@H]4O[C@@H]4[C@@]4(O)CC=CC(=O)[C@]4(C)[C@H]3CC[C@]12C` (stereo not given in full), the GI50 was inactive: > 50 µM.
Next, `O=c1c(Cc2ccc(Cl)cc2)nnc2sc(-c3ccc(-c4ccc(Cl)cc4Cl)o3)nn12`: inactive: 31.1 µM; `CCNc1ncnc2nn[nH]c12`: inactive: > 100 µM; `Nc1ccc2c(SCC(=O)Nc3ccccc3-c3ccccc3NC(=O)CSc3c4ccccc4nc4cc(N)ccc34)c3ccccc3nc2c1`: inactive: 25.4 µM.
For `O/N=C(\C(=N/O)Nc1ccc(-c2ccc(NC(=N/O)/C(=N\O)c3ccccc3)cc2)cc1)c1ccccc1`, the GI50 is inactive: 28.4 µM.
As to `CC(=O)OCCOCNC(=S)N/N=C/c1ccc([N+](=O)[O-])s1`, the GI50 was inactive: 32.9 µM.
Next, `O=C1c2cccc3cccc(c23)C(=O)N1CCCNCCCCNCCCN1C(=O)c2cccc3cccc(c23)C1=O`: active: 0.116 µM; `CC(C)(C)c1cc(C2COC(c3cc(C(C)(C)C)c(O)c(C(C)(C)C)c3)CO2)cc(C(C)(C)C)c1O` (stereo not given): inactive: > 100 µM.
Next, `O=C(c1ccccc1)C1C[C@H]2CO[C@H](c3ccccc3)N2C1=O` (stereo not given in full): inactive: > 100 µM.
In the case of `CSc1c2c(C)n[nH]c2nn1-c1ccccc1`, the GI50 is inactive: 27.2 µM.
Consider `COC(=O)C1(CCC(C)=O)CCCCCC1=O` (stereo not given), for which the GI50 is inactive: > 100 µM.
Next, `CC(=O)c1ccc(NCN2C(=O)c3ccccc3C2=O)cc1`: inactive: > 100 µM; `COc1ccc(N2C(=O)C(=O)N(c3ccccc3[N+](=O)[O-])C2=S)cc1`: inactive: 69.5 µM.
Take `Cc1ccc(NCC2CC/C(=C\c3ccc(Cl)cc3)C2=O)cc1` (stereo not given): the GI50 was inactive: 63.1 µM.
Next, `Cc1ccc([Se][Se]c2ccc(C)cc2)cc1`: inactive: 54.8 µM.
`CCOC(=O)C1(C/C=C/CCl)CCCC1=O` (stereo not given): the GI50 was inactive: 21.8 µM.
`CCCOc1ccc2sc(NC(=O)c3cc([N+](=O)[O-])cc([N+](=O)[O-])c3)nc2c1`: the GI50 is inactive: 45.9 µM.
Then `O=C1NC(=O)C(c2c[nH]c3ccccc23)=C1c1cn(C(c2ccccc2)(c2ccccc2)c2ccccc2)cn1`, with inactive: 12.1 µM; and `CN(CCCNC(=O)c1nn(C)c2c1Cc1ccccc1-2)CCCNC(=O)c1nn(C)c2c1Cc1ccccc1-2`, with inactive: 15.2 µM.
Next, `Cc1cc(C)c(S(=O)(=O)N(CCCCCCN)OCCCN)c(C)c1`: inactive: 14.9 µM; `O=C(CCCNc1nc(-c2ccccc2)cs1)c1cccs1`: inactive: > 100 µM; `CN(C)c1ccc2nc3c(ccc4ccccc43)[o+]c2c1`: inactive: 15.8 µM.
On to `O=c1c2ccccc2nc(-c2ccccc2Cl)n1NC1OC(CO)C(O)C(O)C1O` (stereo not given), for which the GI50 is inactive: > 100 µM.
Next, `COC1OC2COC(C)(C)OC2C2OC(C)(C)OC12` (stereo not given): inactive: 36 µM; `CCOC(=O)C(NC(=O)N(C1=NCC(C)S1)C1CCCCC1)(OC)C(F)(F)F` (stereo not given): inactive: 37.4 µM; `O/N=C1/CCCC/C1=C\c1ccc(Cl)c(Cl)c1`: inactive: 27.5 µM.
As to `O=C(O)C1C2C=CC(O2)C1C(=O)NCc1ccccn1` (stereo not given), the GI50 was inactive: > 100 µM.
Then `N#CC12Cc3cc4c(cc3-c3cccc(c31)CCN2C(=O)c1ccccc1)OCO4` (stereo not given), with inactive: > 100 µM; and `COc1cc2nc(NCCCCCNC(=O)c3ccco3)nc(N)c2cc1OC`, with inactive: 24.6 µM.
`CCN(CC)c1ccc(/N=N/c2ccc([N+](=O)[O-])cc2OC(=O)/C=C/c2ccccc2)c(OC(=O)/C=C/c2ccccc2)c1`: the GI50 is inactive: 1.95 µM.
Turning to `CC(C)(C)OC(=O)N(CCCN)CCCCN`, the GI50 is inactive: > 100 µM.
Turning to `c1ccc(N2N=C(c3ccco3)CC2c2ccco2)cc1` (stereo not given), the GI50 was inactive: > 100 µM.
Then `COC1=CCC2=C(CCN(C(=O)C3CC3)C2Cc2ccc(OC)c(O)c2)C1` (stereo not given), with inactive: 57.8 µM; and `C[C@H]1C(=O)CC[C@]2(C)CCC(C(C)(C)O)CC12O` (stereo not given in full), with inactive: > 100 µM; and `CC1OC(O)C(O)C(O)C1O` (stereo not given), with inactive: > 100 µM.
With `COc1ccc(/C=C2\CCCc3ccccc3C2=O)cc1`, the GI50 is active: 0.317 µM.
Then `CC(CCC(=O)O)[C@H]1CCC2[C@H]3C(CC(=O)[C@@]21C)[C@@]1(C)CCC(O)C[C@H]1C[C@@H]3O` (stereo not given in full), with inactive: > 100 µM; and `COc1ccc2oc(S(=O)(=O)N3CC(CCl)c4ccc(N)cc43)cc2c1` (stereo not given), with inactive: 1.23 µM.
Next, `COc1cccc2c1C(=O)c1c(O)c3c(c(O)c1C2=O)C[C@@](O)(C(=O)CO)C[C@@H]3OC1CC(N)C(O)C(C)O1` (stereo not given in full): active: 463 nM and active: 925 nM; `CC1(C)CCC(C)(C)c2cc(C(=O)Nc3ccc(C(=O)O)cc3)ccc21`: inactive: 33.9 µM.
